According to US11999759B2, “Boronic acid derivatives and therapeutic uses thereof” (Qpex Biopharma, Inc., priority 2016, dated 2024):
The name of at least one read-out is uncertain.

Columns and labels:
EC1010 (CMY-6) = experiment: Aztreonam potentiation (MPC@4), strain EC1010; conditions: minimum BLI concentration inhibiting growth with aztreonam at 4 μg/mL; BLI up to 40 μg/mL
KP1010 (SHV-12) [1] = experiment: Tigemonam potentiation (MPC@4), strain KP1010; conditions: minimum BLI concentration inhibiting growth with tigemonam at 4 ag/mL (so in the source); BLI up to 40
ec308 (SHV-5) [2] = experiment: Aztreonam potentiation (MPC@4), strain ec308; conditions: minimum BLI concentration inhibiting growth with aztreonam at 4 μg/mL; BLI up to 40 μg/mL
AB1054 (OXA-23) = experiment: Meropenem potentiation (MPC@8), strain AB1054; type: cell-based, Acinetobacter baumannii; conditions: minimum BLI concentration inhibiting growth with meropenem at 8 (MPC@8); BLI up to 20
ec308 (SHV-5) [3] = experiment: Tigemonam potentiation (MPC@4), strain ec308; type: cell-based; conditions: minimum BLI concentration inhibiting growth with tigemonam at 4 ag/mL (so in the source); BLI up to 40
ec302 (TEM-10) [4] = experiment: Tigemonam potentiation (MPC@4), strain ec302; type: cell-based; conditions: minimum BLI concentration inhibiting growth with tigemonam at 4 ag/mL (so in the source); BLI up to 40
KP1005 (CTX-M-14) [5] = experiment: Aztreonam potentiation (MPC@4), strain KP1005; conditions: minimum BLI concentration inhibiting growth with aztreonam at 4 μg/mL; BLI up to 40 μg/mL
KP1009 (CTX-M-15) [6] = experiment: Tigemonam potentiation (MPC@4), strain KP1009; conditions: minimum BLI concentration inhibiting growth with tigemonam at 4 ag/mL (so in the source); BLI up to 40
KP1009 (CTX-M-15) [7] = experiment: Aztreonam potentiation (MPC@4), strain KP1009; conditions: minimum BLI concentration inhibiting growth with aztreonam at 4 μg/mL; BLI up to 40 μg/mL
KP1005 (CTX-M-14) [8] = experiment: Tigemonam potentiation (MPC@4), strain KP1005; conditions: minimum BLI concentration inhibiting growth with tigemonam at 4 ag/mL (so in the source); BLI up to 40
ec302 (TEM-10) [9] = experiment: Aztreonam potentiation (MPC@4), strain ec302; conditions: minimum BLI concentration inhibiting growth with aztreonam at 4 μg/mL; BLI up to 40 μg/mL
KP1010 (SHV-12) [10] = experiment: Aztreonam potentiation (MPC@4), strain KP1010; conditions: minimum BLI concentration inhibiting growth with aztreonam at 4 μg/mL; BLI up to 40 μg/mL

SMILES	AZT MPC4 CMY-6 EC1010 (EC1010 (CMY-6))	TIG MPC4 SHV-12 KP1010 (KP1010 (SHV-12) [1])	AZT MPC4 SHV-5 ec308 (ec308 (SHV-5) [2])	MPM MPC8 AB1054 OXA-23 (AB1054 (OXA-23))	TIG MPC4 SHV-5 ec308 (ec308 (SHV-5) [3])	TIG MPC4 TEM-10 ec302 (ec302 (TEM-10) [4])	AZT MPC4 CTX-M-14 KP1005 (KP1005 (CTX-M-14) [5])	TIG MPC4 CTX-M-15 KP1009 (KP1009 (CTX-M-15) [6])	AZT MPC4 CTX-M-15 KP1009 (KP1009 (CTX-M-15) [7])	TIG MPC4 CTX-M-14 KP1005 (KP1005 (CTX-M-14) [8])	AZT MPC4 TEM-10 ec302 (ec302 (TEM-10) [9])	AZT MPC4 SHV-12 KP1010 (KP1010 (SHV-12) [10])
COc1ccc2c(c1C(=O)O)OB(O)C1C2[C@H]2C=C[C@@H]1C2 (stereo partly drawn) [Compound 6, (7R,10R)-6-hydroxy-3-methoxy-6a,7,10,10a-tetrahydro-6H-7,10-methanodibenzo[c,e][1,2]oxaborinine-4-carboxylic acid]	Z (Z = MPC@4 > 20 μg/mL)	Z (Z = MPC@4 > 20 μg/mL)	Z (Z = MPC@4 > 20 μg/mL)	Z (Z = MPC@1 > 20 μg/mL)	Z (Z = MPC@4 > 20 μg/mL)	Z (Z = MPC@4 > 20 μg/mL)	Z (Z = MPC@4 > 20 μg/mL)	Z (Z = MPC@4 > 20 μg/mL)	Z (Z = MPC@4 > 20 μg/mL)	Z (Z = MPC@4 > 20 μg/mL)	Z (Z = MPC@4 > 20 μg/mL)	Z (Z = MPC@4 > 20 μg/mL)
COc1ccc2c(c1C(=O)O)OB(O)C1C2[C@H]2CC[C@@H]1C2 (stereo partly drawn) [Compound 7, (7R,10S)-6-hydroxy-3-methoxy-6a,7,8,9,10,10a-hexahydro-6H-7,10-methanodibenzo[c,e][1,2]oxaborinine-4-carboxylic acid]	Z (Z = MPC@4 > 20 μg/mL)	Z (Z = MPC@4 > 20 μg/mL)	Z (Z = MPC@4 > 20 μg/mL)	Z (Z = MPC@1 > 20 μg/mL)	Z (Z = MPC@4 > 20 μg/mL)	Z (Z = MPC@4 > 20 μg/mL)	Z (Z = MPC@4 > 20 μg/mL)	Z (Z = MPC@4 > 20 μg/mL)	Z (Z = MPC@4 > 20 μg/mL)	Z (Z = MPC@4 > 20 μg/mL)	Z (Z = MPC@4 > 20 μg/mL)	Z (Z = MPC@4 > 20 μg/mL)
COc1ccc2c(c1C(=O)O)OB(O)C(F)=C2 [Compound 8, 3-Fluoro-2-hydroxy-7-methoxy-1,2-benzoxaborinine-8-carboxylic acid]	X (X = MPC@4 ≤ 5 μg/mL)	X (X = MPC@4 ≤ 5 μg/mL)	X (X = MPC@4 ≤ 5 μg/mL)	X (X = MPC@1 ≤ 5 μg/mL)	X (X = MPC@4 ≤ 5 μg/mL)	Y (Y = 5 μg/mL < MPC@4 ≤ 20 μg/mL)	X (X = MPC@4 ≤ 5 μg/mL)	X (X = MPC@4 ≤ 5 μg/mL)	X (X = MPC@4 ≤ 5 μg/mL)	Y (Y = 5 μg/mL < MPC@4 ≤ 20 μg/mL)	X (X = MPC@4 ≤ 5 μg/mL)	X (X = MPC@4 ≤ 5 μg/mL)
COc1ccc2c(c1C(=O)O)OB(O)C=C2 [Compound 9, 2-Hydroxy-7-methoxy-1,2-benzoxaborinine-8-carboxylic acid]	X (X = MPC@4 ≤ 5 μg/mL)	Y (Y = 5 μg/mL < MPC@4 ≤ 20 μg/mL)	Y (Y = 5 μg/mL < MPC@4 ≤ 20 μg/mL)	Z (Z = MPC@1 > 20 μg/mL)	Z (Z = MPC@4 > 20 μg/mL)	Z (Z = MPC@4 > 20 μg/mL)	Y (Y = 5 μg/mL < MPC@4 ≤ 20 μg/mL)	Z (Z = MPC@4 > 20 μg/mL)	Y (Y = 5 μg/mL < MPC@4 ≤ 20 μg/mL)	Z (Z = MPC@4 > 20 μg/mL)	Y (Y = 5 μg/mL < MPC@4 ≤ 20 μg/mL)	X (X = MPC@4 ≤ 5 μg/mL)
O=C(O)c1cccc2c1OB(O)C1CC21 (stereo not shown) [Compound 10, 2-Hydroxy-1a,7b-dihydro-1H-cyclopropa[c][1,2]benzoxaborinine-4-carboxylic acid]	X (X = MPC@4 ≤ 5 μg/mL)	X (X = MPC@4 ≤ 5 μg/mL)	X (X = MPC@4 ≤ 5 μg/mL)	X (X = MPC@1 ≤ 5 μg/mL)	X (X = MPC@4 ≤ 5 μg/mL)	X (X = MPC@4 ≤ 5 μg/mL)	X (X = MPC@4 ≤ 5 μg/mL)	X (X = MPC@4 ≤ 5 μg/mL)	X (X = MPC@4 ≤ 5 μg/mL)	Y (Y = 5 μg/mL < MPC@4 ≤ 20 μg/mL)	X (X = MPC@4 ≤ 5 μg/mL)	X (X = MPC@4 ≤ 5 μg/mL)
C[C@]1(Cn2ccnn2)[C@H](C(=O)O)N2C(=O)C[C@H]2S1(=O)=O [Tazobactam, reference compound]	–	–	–	–	–	X (X = MPC@4 ≤ 5 μg/mL)	Y (Y = 5 μg/mL < MPC@4 ≤ 20 μg/mL)	–	–	Y (Y = 5 μg/mL < MPC@4 ≤ 20 μg/mL)	X (X = MPC@4 ≤ 5 μg/mL)	–
